Variants at the background level are over-represented here.
B1: TPR 5TU (parent)
chain: GGAUCUUCUCGAUCUAACAAAAAAGACAAAUCUGCCACAAAGCUUGAGAGCAUCUUCGGAUGCAGAGGCGGCAGCCUUCGGUGGCGCGAUAGCGCCAACGUUCUCAACUAUGACACGCAAAACGCGUGCUCCGUUGAAUGGAGUUUAUCAUG

Variants of: B1
Experiment: polymerase ribozyme fitness, log enrichment relative to wild type (log ratio); higher = more active; in vitro selection for triplet polymerase activity
In short: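 Mutant libraries of each subunit of a heterodimeric triplet polymerase ribozyme were built by PCR and transcribed. Each library went through one round of in vitro selection in triplicate: annealing with biotinylated primer, partner subunit and triplets, frozen incubation at −7 °C, gel excision of extended constructs, streptavidin-bead capture and RT-PCR. Input and output libraries were Illumina-sequenced; only genotypes with ≥10 input reads and ≥1 read per output were kept. Fitness is log2(genotype enrichment/wild-type enrichment), using inverse-variance-weighted replicate averages.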
With GGAUCUUCUCGAUCUAACAAAAAAGACAAAUCUGCCAAAACGCUUGAGAGCAUGUUCGGAUGCAGAGGCGGCAGCCGUCGGUGGCGCGAUAGAGCCAACGUUCUCAACUAUGACACGCAACCCGCGUGCUCCGUUGAAUGGAGUUUAUCAUG [C38A A41C C54G U77G C93A A121C A122C] the “polymerase ribozyme fitness (log ratio)” value was no more than -4.2.
In the case of GGAUCUUCUCGAUCUAACAAAAAAGACAAAUCUGCCAAAAAGCUUGAGUGCAUCUUCGGAUGCAGAGGCGGCAGCCUUCGGUGGCGCGAUAGAGCUAACGGUCUCAACUAUGACACGCAAAACGCGUGCUCCGUUGACUGGAGUUUAUCAUG [C38A A49U C93A C96U U101G A138C], the “polymerase ribozyme fitness (log ratio)” value is reported as no more than -4.2.
In the case of GGAUCUUCUCGAUCUAACAAAAAAGACAAAUCUGCCAAAAAGCUUGAGCGCAUCUUCGGAUGCAGAAGCGGCAGCCUUGGGUGGCGCGAUAGCGCCAACGUUCUCAACUAUGACACGCAAAACGCGUGCUCCGUUGAAUGGAGUUUAUCAUG [C38A A49C G67A C79G], the “polymerase ribozyme fitness (log ratio)” value is reported as no more than -4.2.
With GGAUCUUCUCGAUCUAACAAAAAAGACAAAUCUGCCAAAAAGCUUGAGAGCAUCUUCGGAUGCAGAGGCGGCUGCCUUCCCUGGCGCGAUAGCGGCAACGUUCUCAACUAUGACACACAAAACGCGUGCUCCUUUGAAUGCAGUUUAUCAUG [C38A A73U G80C G81C C95G G117A G133U G141C] the “polymerase ribozyme fitness (log ratio)” value was no more than -4.2.
For GGAUCUUCUCGAUCUAACAAAAAAGACAAAUCUGCCAAAAAGCUUGAGCGCAUCUUCGGAUGCAGAGGCGGCAGCGUUCGGUGGCGAGAUAGCGCCAACGUUCUCAACUAUGACACGCAAAACGCGUGCUCCGUUGAAUGCAGUUUAUCAUG [C38A A49C C76G C87A G141C], the “polymerase ribozyme fitness (log ratio)” value was no more than -4.2.
For GGAUCUUCUCGAUCUAACAAAAAAGACAAAUCUGCCAAAAAGCUUGAGAGCAUCUUCGGAUGCAGAGGCGGCAGCCUUCGGUGGUGCGAUAGCGCCAACGUUCUCAACUAUGACACGCAAAACGAUUGCUCCGUUGAAUGGAGUUUAUCAUG [C38A C85U C125A G126U], the “polymerase ribozyme fitness (log ratio)” value was no more than -4.2.
In the case of GGAUCUUCUCGAUCUAACAAAAAAGACAAAUCUGCCAAGAACCUUGAGAGCAUCUUCGGAUGCAGAGGCGGCAGCCUUCGGUGGCGCGAUAGCGCCAACGUUCUCAACUAUGACACGCAAAACGCGUGCUCCGUUGAAUGGAGUUUAUCAUG [C38A A39G G42C], the “polymerase ribozyme fitness (log ratio)” value is reported as no more than -4.2.
For GGAUCUUCUCGAUCUAACAAAAAAGACAAAUCUGCCAAAAAGCUUGAGAGCAUCUUCGGAUGCAGAGGCGGCAGGAUUCGGUGGCGGGAUAGCGCCAACGUUCUUAUCUAUGACACGCAAAACGCGUGCUCCGUUGAAUGGAGUUUAUCAUG [C38A C75G C76A C87G C105U A107U], the “polymerase ribozyme fitness (log ratio)” value was no more than -4.2.
With GGAUCUUCUCGAUCUAACAAAAAAGACAAAUCUGCCAAAAAGCUUGAGCGCAUCUUCGGAUGCAGAGGCGGCAGCCUUCGGUGGCGCGAUAGCGCCAACGUUCUCAACUAUGACACGCAAAACGCGUGCUCCGUUGAAUGGAGUUUAUCAUG [C38A A49C] the “polymerase ribozyme fitness (log ratio)” value was no more than -4.2.
For GGAUCUUCUCGAUCUAACAAAAAAGACAAAUCUGCCAAAAAGCUUGAGAGCAUCUUCGGAUGCAGAGGCGGCAGCUUUCGGUGGCGCGAUAGCGCCAACGUUCUCAACUAUGACACGCAAAACGCGUGCUCCGUUGAAUGGAGUUUAUCAUG [C38A C76U], the “polymerase ribozyme fitness (log ratio)” value was -0.21.
For GGAUCUUCUCGAUCUAACAAAAAAGACAAAUCUGCCUCAAAGCUUGAGAGCAUCUUCGGAUGCAGAGGCGGCAGCCUUCGGUGGCGCGAUAGCGCCAACGUUCUCAACUAUGACACGCAAAACGCGUGCUCCGUUGAAUGGAGUUGAUCAUG [A37U U146G], the “polymerase ribozyme fitness (log ratio)” value was -2.19.
In the case of GGAUCUUCUCGAUCUAACAAAAAAGACAAAUCUGCCAAAAAGCUUGAGAGCAUCUUCGGAUGCAGAGGCGGCAGCCUUCGGUGGCGCGAUAGCGCCCACGUUCUCAACUGUGACACGCGAAACGCGUGCUCCGUUAAAUGGGGUUUAACAUG [C38A A97C A110G A119G G136A A142G U148A], the “polymerase ribozyme fitness (log ratio)” value is reported as no more than -4.2.
In the case of GGAUCUUCUCGAUCUAACAAAAAAGACAAAUCUGCCAAAAAGCUUGAGGCCAUCUGCGGAUGCAGAGGCGGCAGCCUUCGGUGGCGCGAUAGCGCCAACGUUCUCAACUAUGACACGCAAAACGCGUGCUCCGUUGAAUGGACUUUAUCAUG [C38A A49G G50C U56G G143C], the “polymerase ribozyme fitness (log ratio)” value is reported as no more than -4.2.
In the case of GGAUCUUCUCGAUCUAACAAAAAAGACAAAUCUGCCAAAAAGCUUGAGAGCAUCUUCGGAUGCAGAGGCGGCAGCGUUCGGUGGCGCGAUACCGCCAACGUUCUCAACUAUGACACGCAAAACGCGUGCUCCGUUGAAUGGAGUUUAUCAUG [C38A C76G G92C], the “polymerase ribozyme fitness (log ratio)” value is reported as no more than -4.2.
With GGAUCUUCUCGAUCUAACAAAAAAGACAAAUCUGCCAAAAAGCUUGAGAGCAUCUUCGGAUGCAGAGGCGGCAGCCUUCGGUGGUGCGAUAGCGCCAACGUUCUCAGCUAUGACACGCAAAACCCGUGCUCCGUUGAAUGGAGUUUAUCAUG [C38A C85U A107G G124C] the “polymerase ribozyme fitness (log ratio)” value was no more than -4.2.
With GGAUCUUCUCGAUCUAACAAAAAAGACAAAUCUGCCAACGAGCUUGAGAGCAUCUUCGGGUGCACAGGCGGCAGCCUUCGGUGGCGAGAUAGCUCCAAGGUUCUCAACUAUGACACGCAAAACGCGUGCUCCGUUGAAUGGAGUUUAUCAUG [C38A A39C A40G A60G G65C C87A G94U C99G] the “polymerase ribozyme fitness (log ratio)” value was no more than -4.2.
In the case of GGAUCUUCUCGAUCUAACAAAAAAGACAAAUCUGCCUCAAAGCUUGAGAGCAUCUUCGGAUGCAGAGGCGGCAGCCUUCGGUGGCGCGACAGCGCCAACGUUCUCAACUAUGACACGCAAAGCGCGUGCUCCGUUGAAUGGAGUUUAUCAUG [A37U U90C A122G], the “polymerase ribozyme fitness (log ratio)” value is reported as no more than -4.2.
With GGAUCUUCUCGAUCUAACAAAAAAGACAAAUCUGCCUCAAAGCUUGAGAGCAUCUUCGGAUGCAGAGGCGGCAGCCUGCGGUGGCGCGAUAGCUCCAACGUUCUCAACUAUGACACGCAAAACGCGUGCUCCUUUGAAUGGAGUUUAUCAUG [A37U U78G G94U G133U] the “polymerase ribozyme fitness (log ratio)” value was no more than -4.2.
In the case of GGAUCUUCUCGAUCUAACAAAAAAGACAAAUCUGCCAAUAAGCUUGAGAGCAUCUUCGGAUGCAGAGGCGGCAGCCUUCGGUGGGGCGAUAGCGCCAACGUUCUCAACUAGGACACGCAAAACGCGUGCUCCGUUGAAUGGAGUUAAUCAUG [C38A A39U C85G U111G U146A], the “polymerase ribozyme fitness (log ratio)” value is reported as no more than -4.2.
